Results are given in words; binding and its absence hold for the method and conditions named. In cells and extracts the contact can be indirect. Some binding calls cover weakened binding; strength is not graded here. For some of these results: Tags and fused reporters may be left off the sequences shown.
T1: FLAG-ELMSAN1 (UniProt Q6PJG2)
T1 sequence: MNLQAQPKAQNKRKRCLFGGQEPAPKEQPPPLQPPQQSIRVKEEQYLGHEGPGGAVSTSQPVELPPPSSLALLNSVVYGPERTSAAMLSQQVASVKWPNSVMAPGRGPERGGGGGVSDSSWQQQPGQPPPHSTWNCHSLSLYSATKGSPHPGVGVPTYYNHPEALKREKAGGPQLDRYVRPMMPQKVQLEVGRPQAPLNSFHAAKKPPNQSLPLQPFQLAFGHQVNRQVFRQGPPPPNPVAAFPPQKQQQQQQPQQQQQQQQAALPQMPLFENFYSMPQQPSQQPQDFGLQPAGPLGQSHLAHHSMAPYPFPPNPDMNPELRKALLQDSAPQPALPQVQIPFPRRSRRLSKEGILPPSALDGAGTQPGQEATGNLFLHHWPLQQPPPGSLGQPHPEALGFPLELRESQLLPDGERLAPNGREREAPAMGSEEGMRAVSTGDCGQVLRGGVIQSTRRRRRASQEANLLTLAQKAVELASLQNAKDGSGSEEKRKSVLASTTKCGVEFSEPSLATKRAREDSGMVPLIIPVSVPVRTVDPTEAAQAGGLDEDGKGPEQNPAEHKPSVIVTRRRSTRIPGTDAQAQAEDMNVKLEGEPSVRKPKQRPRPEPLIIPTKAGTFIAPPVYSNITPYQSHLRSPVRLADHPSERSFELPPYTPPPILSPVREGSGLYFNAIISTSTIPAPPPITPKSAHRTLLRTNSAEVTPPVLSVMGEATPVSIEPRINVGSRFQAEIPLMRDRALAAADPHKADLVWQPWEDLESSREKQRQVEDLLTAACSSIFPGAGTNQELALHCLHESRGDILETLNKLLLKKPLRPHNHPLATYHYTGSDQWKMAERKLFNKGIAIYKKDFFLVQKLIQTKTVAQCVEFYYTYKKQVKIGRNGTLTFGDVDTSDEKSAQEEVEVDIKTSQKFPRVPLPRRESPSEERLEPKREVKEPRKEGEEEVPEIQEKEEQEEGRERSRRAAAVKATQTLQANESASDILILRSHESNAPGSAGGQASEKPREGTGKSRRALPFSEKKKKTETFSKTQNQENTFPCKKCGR

Sequences of proteins named here, by UniProt entry; tags and fusion partners are left off.
UniProt O15550: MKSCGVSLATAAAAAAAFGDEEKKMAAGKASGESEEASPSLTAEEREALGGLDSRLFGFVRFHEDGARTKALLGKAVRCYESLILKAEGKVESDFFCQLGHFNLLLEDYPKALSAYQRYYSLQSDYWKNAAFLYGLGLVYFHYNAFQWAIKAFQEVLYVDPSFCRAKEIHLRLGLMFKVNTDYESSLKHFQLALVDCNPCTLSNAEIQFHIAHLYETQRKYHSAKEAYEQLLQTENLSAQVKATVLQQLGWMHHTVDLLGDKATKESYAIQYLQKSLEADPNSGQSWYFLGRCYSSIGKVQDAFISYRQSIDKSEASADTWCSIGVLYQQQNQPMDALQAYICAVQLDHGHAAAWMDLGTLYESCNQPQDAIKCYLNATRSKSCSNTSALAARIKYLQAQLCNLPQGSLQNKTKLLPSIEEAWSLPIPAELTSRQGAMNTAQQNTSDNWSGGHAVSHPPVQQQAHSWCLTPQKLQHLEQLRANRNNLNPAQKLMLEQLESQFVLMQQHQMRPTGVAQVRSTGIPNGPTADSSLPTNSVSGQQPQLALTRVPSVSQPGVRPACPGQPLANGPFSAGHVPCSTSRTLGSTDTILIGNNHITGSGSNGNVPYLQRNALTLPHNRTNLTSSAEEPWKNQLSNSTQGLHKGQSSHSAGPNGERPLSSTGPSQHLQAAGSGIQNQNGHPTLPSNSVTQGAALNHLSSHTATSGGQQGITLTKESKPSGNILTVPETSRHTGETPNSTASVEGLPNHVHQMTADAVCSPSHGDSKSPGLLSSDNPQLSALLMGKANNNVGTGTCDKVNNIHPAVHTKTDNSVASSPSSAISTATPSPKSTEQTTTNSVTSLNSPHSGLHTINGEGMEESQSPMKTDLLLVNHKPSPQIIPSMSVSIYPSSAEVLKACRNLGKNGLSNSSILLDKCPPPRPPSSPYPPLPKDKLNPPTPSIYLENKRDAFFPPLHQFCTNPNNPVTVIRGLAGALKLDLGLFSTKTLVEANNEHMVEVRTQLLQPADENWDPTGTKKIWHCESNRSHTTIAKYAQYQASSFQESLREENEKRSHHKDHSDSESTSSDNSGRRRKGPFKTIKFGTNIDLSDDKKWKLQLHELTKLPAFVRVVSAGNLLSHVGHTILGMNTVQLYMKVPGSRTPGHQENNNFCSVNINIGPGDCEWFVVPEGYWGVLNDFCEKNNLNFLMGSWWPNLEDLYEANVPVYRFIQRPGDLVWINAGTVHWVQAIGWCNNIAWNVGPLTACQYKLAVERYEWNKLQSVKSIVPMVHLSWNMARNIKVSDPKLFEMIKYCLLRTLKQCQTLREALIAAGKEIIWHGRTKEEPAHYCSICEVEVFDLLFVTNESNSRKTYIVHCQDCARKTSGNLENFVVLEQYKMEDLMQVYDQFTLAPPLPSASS
UniProt Q13547: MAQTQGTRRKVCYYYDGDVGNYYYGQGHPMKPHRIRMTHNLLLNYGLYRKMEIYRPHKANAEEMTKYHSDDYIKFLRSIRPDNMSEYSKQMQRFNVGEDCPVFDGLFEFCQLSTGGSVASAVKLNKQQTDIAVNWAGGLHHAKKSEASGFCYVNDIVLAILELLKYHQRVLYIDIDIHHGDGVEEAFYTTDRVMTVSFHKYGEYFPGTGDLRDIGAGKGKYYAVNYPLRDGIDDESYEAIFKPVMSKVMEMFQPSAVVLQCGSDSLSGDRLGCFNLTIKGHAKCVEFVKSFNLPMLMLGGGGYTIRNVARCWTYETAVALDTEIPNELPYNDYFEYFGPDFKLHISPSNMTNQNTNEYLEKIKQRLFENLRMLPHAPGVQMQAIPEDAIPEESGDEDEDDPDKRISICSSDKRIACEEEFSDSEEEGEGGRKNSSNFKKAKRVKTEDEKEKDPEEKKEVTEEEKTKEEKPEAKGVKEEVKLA
UniProt O09106: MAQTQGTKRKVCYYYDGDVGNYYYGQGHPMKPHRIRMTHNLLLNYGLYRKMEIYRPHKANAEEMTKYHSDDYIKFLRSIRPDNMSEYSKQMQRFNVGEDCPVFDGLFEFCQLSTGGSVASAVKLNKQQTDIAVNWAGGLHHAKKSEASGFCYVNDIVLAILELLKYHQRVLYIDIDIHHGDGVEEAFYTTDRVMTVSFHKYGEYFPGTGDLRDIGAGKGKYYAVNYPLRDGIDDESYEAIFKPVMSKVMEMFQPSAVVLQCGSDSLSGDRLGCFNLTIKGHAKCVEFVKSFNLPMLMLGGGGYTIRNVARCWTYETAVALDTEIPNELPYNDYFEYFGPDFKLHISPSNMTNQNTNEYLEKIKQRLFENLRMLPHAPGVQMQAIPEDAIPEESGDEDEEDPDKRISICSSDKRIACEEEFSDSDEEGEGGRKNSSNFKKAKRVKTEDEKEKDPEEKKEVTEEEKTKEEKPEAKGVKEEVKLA
UniProt Q92769: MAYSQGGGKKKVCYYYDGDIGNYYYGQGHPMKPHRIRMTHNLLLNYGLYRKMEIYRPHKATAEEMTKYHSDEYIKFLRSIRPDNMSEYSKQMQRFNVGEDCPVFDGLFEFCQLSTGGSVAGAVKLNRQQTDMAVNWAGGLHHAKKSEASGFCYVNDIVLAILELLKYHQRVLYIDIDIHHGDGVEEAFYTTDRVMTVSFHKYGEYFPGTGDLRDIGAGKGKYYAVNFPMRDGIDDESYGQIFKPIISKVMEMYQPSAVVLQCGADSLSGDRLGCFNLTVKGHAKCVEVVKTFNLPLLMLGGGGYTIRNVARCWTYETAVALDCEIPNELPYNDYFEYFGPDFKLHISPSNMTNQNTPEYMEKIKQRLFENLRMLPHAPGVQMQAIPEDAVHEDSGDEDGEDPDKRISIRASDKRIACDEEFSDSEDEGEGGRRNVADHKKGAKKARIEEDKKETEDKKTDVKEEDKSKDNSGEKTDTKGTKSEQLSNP
UniProt Q92830: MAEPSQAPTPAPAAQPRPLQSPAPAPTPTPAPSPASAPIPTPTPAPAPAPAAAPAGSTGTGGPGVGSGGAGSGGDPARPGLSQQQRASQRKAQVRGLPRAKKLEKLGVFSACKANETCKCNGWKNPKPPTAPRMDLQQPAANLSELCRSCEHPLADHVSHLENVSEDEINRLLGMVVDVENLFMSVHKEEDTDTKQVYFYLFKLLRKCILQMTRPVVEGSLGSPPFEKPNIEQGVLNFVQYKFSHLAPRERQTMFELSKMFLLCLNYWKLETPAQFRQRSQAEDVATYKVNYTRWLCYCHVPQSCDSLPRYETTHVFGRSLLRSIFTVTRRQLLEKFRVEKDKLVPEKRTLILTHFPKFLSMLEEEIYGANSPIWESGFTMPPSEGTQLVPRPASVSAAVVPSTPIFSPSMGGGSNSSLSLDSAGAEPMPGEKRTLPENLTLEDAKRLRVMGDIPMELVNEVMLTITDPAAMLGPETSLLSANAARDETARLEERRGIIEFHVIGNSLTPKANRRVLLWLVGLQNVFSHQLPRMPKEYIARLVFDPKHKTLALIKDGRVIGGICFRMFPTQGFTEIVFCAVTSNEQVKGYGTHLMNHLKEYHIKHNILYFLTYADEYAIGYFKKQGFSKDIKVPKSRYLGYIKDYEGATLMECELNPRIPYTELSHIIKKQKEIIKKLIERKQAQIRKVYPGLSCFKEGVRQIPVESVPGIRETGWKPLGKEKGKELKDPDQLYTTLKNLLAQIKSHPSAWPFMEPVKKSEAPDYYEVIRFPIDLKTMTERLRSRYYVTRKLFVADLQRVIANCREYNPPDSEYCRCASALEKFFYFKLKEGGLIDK
UniProt Q15291: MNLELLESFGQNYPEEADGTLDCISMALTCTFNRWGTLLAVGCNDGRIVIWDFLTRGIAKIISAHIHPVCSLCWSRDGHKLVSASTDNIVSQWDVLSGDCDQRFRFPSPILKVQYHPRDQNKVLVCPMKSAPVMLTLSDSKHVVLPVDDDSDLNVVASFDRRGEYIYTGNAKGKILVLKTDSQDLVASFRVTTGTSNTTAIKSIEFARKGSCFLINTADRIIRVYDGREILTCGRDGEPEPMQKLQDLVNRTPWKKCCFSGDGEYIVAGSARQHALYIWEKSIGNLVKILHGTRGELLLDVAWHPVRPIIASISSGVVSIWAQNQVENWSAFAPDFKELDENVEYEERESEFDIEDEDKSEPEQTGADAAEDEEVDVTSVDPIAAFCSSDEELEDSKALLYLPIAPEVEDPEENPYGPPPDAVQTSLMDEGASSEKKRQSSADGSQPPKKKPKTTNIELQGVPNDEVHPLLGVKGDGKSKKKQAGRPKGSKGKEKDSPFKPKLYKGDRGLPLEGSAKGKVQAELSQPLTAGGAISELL

T2: DNTTIP1 (endogenous, mouse embryonic stem cells) (mouse (endogenous in mESCs)) (UniProt Q99LB0)
T2 sequence: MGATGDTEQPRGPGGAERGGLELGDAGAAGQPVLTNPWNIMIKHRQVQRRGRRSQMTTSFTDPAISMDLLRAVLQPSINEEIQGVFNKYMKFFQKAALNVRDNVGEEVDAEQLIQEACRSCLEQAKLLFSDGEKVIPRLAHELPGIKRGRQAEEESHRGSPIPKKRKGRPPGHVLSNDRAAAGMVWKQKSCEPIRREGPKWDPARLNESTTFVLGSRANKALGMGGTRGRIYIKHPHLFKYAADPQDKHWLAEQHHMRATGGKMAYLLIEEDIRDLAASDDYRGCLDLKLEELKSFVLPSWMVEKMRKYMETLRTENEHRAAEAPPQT

T3: FLAG-DNTTIP1 (UniProt Q9H147)
T3 sequence: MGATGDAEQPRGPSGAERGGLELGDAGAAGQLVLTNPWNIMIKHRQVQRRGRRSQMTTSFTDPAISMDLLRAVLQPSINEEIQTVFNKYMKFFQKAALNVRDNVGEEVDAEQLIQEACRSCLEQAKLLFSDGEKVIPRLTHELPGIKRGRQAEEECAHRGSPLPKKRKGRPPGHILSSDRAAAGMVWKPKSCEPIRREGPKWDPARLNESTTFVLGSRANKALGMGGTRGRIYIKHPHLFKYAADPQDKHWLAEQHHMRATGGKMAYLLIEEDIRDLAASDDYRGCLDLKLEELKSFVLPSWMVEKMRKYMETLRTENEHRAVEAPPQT

B1: ELMSAN1 (endogenous, human cells) (protein, UniProt Q6PJG2 1-1045)
chain: MNLQAQPKAQNKRKRCLFGGQEPAPKEQPPPLQPPQQSIRVKEEQYLGHEGPGGAVSTSQPVELPPPSSLALLNSVVYGPERTSAAMLSQQVASVKWPNSVMAPGRGPERGGGGGVSDSSWQQQPGQPPPHSTWNCHSLSLYSATKGSPHPGVGVPTYYNHPEALKREKAGGPQLDRYVRPMMPQKVQLEVGRPQAPLNSFHAAKKPPNQSLPLQPFQLAFGHQVNRQVFRQGPPPPNPVAAFPPQKQQQQQQPQQQQQQQQAALPQMPLFENFYSMPQQPSQQPQDFGLQPAGPLGQSHLAHHSMAPYPFPPNPDMNPELRKALLQDSAPQPALPQVQIPFPRRSRRLSKEGILPPSALDGAGTQPGQEATGNLFLHHWPLQQPPPGSLGQPHPEALGFPLELRESQLLPDGERLAPNGREREAPAMGSEEGMRAVSTGDCGQVLRGGVIQSTRRRRRASQEANLLTLAQKAVELASLQNAKDGSGSEEKRKSVLASTTKCGVEFSEPSLATKRAREDSGMVPLIIPVSVPVRTVDPTEAAQAGGLDEDGKGPEQNPAEHKPSVIVTRRRSTRIPGTDAQAQAEDMNVKLEGEPSVRKPKQRPRPEPLIIPTKAGTFIAPPVYSNITPYQSHLRSPVRLADHPSERSFELPPYTPPPILSPVREGSGLYFNAIISTSTIPAPPPITPKSAHRTLLRTNSAEVTPPVLSVMGEATPVSIEPRINVGSRFQAEIPLMRDRALAAADPHKADLVWQPWEDLESSREKQRQVEDLLTAACSSIFPGAGTNQELALHCLHESRGDILETLNKLLLKKPLRPHNHPLATYHYTGSDQWKMAERKLFNKGIAIYKKDFFLVQKLIQTKTVAQCVEFYYTYKKQVKIGRNGTLTFGDVDTSDEKSAQEEVEVDIKTSQKFPRVPLPRRESPSEERLEPKREVKEPRKEGEEEVPEIQEKEEQEEGRERSRRAAAVKATQTLQANESASDILILRSHESNAPGSAGGQASEKPREGTGKSRRALPFSEKKKKTETFSKTQNQENTFPCKKCGR

Tests used:
FLAG-ELMSAN1 = target: T1, FLAG-ELMSAN1; experiment: co-IP; FLAG IP (FLAG-UTX, FLAG-ELMSAN1 or FLAG-DNTTIP1) from nuclear extracts of HEK293 cells, Western blot; FLAG-tag expressing cells as IP control
[1] = target: T2, DNTTIP1 (endogenous, mouse embryonic stem cells) (mouse (endogenous in mESCs)); experiment: co-IP; IP of endogenous UTX or DNTTIP1 with antibodies (5 ug per IP) from nuclear extracts of WT and Mll3/4 DKO mESCs, Western blot; IgG as IP control
FLAG-DNTTIP1 = target: T3, FLAG-DNTTIP1; experiment: co-IP; FLAG IP (FLAG-UTX, FLAG-ELMSAN1 or FLAG-DNTTIP1) from nuclear extracts of HEK293 cells, Western blot; FLAG-tag expressing cells as IP control
[2] = target: FLAG-UTX (tetracycline-inducible HEK293 line) (UniProt O15550); experiment: as above
[3] = target: FLAG-UTX (tetracycline-inducible HEK293 line) (UniProt O15550); experiment: co-sedimentation; glycerol gradient fractionation of FLAG-affinity purified UTX from nuclear extracts of HEK293 cells; 34 fractions analysed by Western blot
[4] = target: FLAG-UTX (transiently transfected into HCT116 cells) (UniProt O15550); experiment: co-IP; FLAG IP from nuclear extracts of MLL3+/+ MLL4+/+, MLL3-/- MLL4+/+ and MLL3-/- MLL4-/- HCT116 cells transiently transfected with FLAG-UTX, Western blot; FLAG-tag plasmid as IP control
[5] = target: FLAG-UTX (tetracycline-inducible HEK293 line) (UniProt O15550); experiment: co-IP; FLAG IP (FLAG-UTX, FLAG-ELMSAN1 or FLAG-DNTTIP1) from nuclear extracts of HEK293 cells, Western blot; FLAG-tag expressing cells as IP control; remark: listed apart in the source

| Molecule | binding (FLAG-ELMSAN1) | binding [2] | binding [3] | other results |
| --- | --- | --- | --- | --- |
| HDAC1 (endogenous, human cells) (from UniProt Q13547 1-482) (enzyme) | binds |  |  |  |
| HDAC1 (endogenous, mouse embryonic stem cells) (from UniProt O09106 1-482) (enzyme) |  |  |  | binding [1]: binds |
| HDAC2 (endogenous, HEK293) (from UniProt Q92769 1-488) (enzyme) | binds |  |  | binding (FLAG-DNTTIP1): binds |
| KAT2A (endogenous, HEK293) (from UniProt Q92830 1-837) (enzyme) |  | no binding |  |  |
| RBBP5 (endogenous, HEK293) (from UniProt Q15291 1-538) |  | binds | binds |  |
| B1 |  |  | binds | binding [4]: binds; binding [5]: binds |

From paper PMC9275676
